Source: the supplement of paper PMC11417369
The other results are listed elsewhere or left out.

System: PfAP2-HC AP2 domain (GST-tagged)
Assay: gcPBM binding intensity (ln(normalized median fluorescence intensity)); higher = stronger DNA binding
Method in brief: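 In this array assay, P. falciparum DNA-binding domains with a GST tag, expressed in E. coli, were applied for 1 h to primer-extended double-stranded 36-bp intergenic genomic probes and negative controls on an Agilent 4 × 180k array. Bound protein was visualised with Alexa488 anti-GST antibody at 488 nm. Binding intensity is the highest Masliner-normalised natural-log median intensity across replicate spots of either probe orientation.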

Sequence	gcPBM binding intensity (ln)
AAAACAAATTTTAATGAGAATATGAAAAAAAAATAT [XGTACX_negctrl_site268]	9.63
CTTTGTGGTATAGATACACACTATATTAATATGAAC [CACACA_site7081]	9.66
AAATAAAAAGGGTGCACACAAAAATATATATATATA [CACACA_site1728]	9.94
ATTTTAAATATTTGTGGTACCCCTTTTTTGTAACAA [XGTACX_site5590]	9.61
TAAAAAAGAACAGAAACACACAAATAAAATAAAATT [CACACA_site1758]	10.6
CAAAATTGAAGGAACACACATACATATATATATATG [CACACA_site179]	9.85
ATTTATTTATGTATTTGTACGTATATATTTATGCAT [XGTACX_site5218]	9.83
GTATAACAACTGATAAAAGAAAAAAAATTTATTATT [CACACA_negctrl_site377]	9.53
ATAATATTTTTAAACTGTACTTTTATAAACACTTAT [XGTACX_site2625]	9.75
TCATATTTTACATATGCATGTTAATAATACAAACAT [TGCATGCA_site994]	9.68
TTTTTTTCGTATATTACACACTATAAATAGAAATTA [CACACA_site6278]	9.48
TTAACATCAAAATATGCACACAAACAATTAGCGGTA [CACACA_site8801]	9.89
TATATATATAAATACACACACACCCTAAAAATATAT [CACACA_site4970]	10.4
ATATTATGTCTACATAAACACACATATATATAAAAA [CACACA_site7976]	9.73
TTACCATAAGTATGTGGTACACTTTAAATGAAGATA [XGTACX_site6972]	9.53
AATAAATATTCATTTTGTACATATTTTTCGTATATG [XGTACX_site6104]	9.65
AATAGTTATAAATATAAATATATATATATATATATA [CACACA_negctrl_site414]	9.48
TTTTCATTCTTTTCCTTTGATTTACAATAGTATATT [GTGCAC_negctrl_site687]	9.81
CAAAATATTATCATGATGCACTTTACACTCTAAGGT	9.78
AAAAAATAAAAGTGGGGTACATGTCATTATGTGCAT [XGTACX_site3753]	9.83
TCATTATATTATTCTTGTACTTATATCCTTTTTTGA [XGTACX_site5320]	9.76
TAAAAGTTCACCTGTACACACATATATATCTGTACA [CACACA_site5019]	9.87

Sequence	gcPBM binding intensity (ln)
GTTTATTAGGAATTATGTACACAGTTTTATAAAGAA [XGTACX_site2994]	9.53
AATATAATATATTGCACACAAAAAGTGAATTATTCT [CACACA_site1684]	9.89
AATATATACATACATACATGCACATATATATATATA [TGCATGCA_site393]	9.76
AAATAGTTGTTATGGGTGCAAACCACATATATATAA [GTGCAC_site9428]	9.63
AGGCCTTTTAGTATTTCACACACGTAAATGTGTATA [CACACA_site8284]	10.1
ATTTGTTTAAGTCACGAACACACATATATCATCAAT [CACACA_site985]	9.77
ATTATTTACCACAACACACAAATATTTACCAATCAT [CACACA_site5472]	10.5
AAATATTATTCATTTTGTACGTATAATTTTTAATGA [XGTACX_site3509]	9.57
AGTAGTCTGGAGAAAAGTACACAGTATCTGGTAGCT [XGTACX_site2544]	9.6
TATAATAATCCACAAGCACACACACCCACATATATA [CACACA_site8343]	11.3
GATCTTTCACATATATATATAAAGGATATTATGGTA [CACACA_negctrl_site522]	9.5
ATTATATTATATTATACATGCATAATATTATATAAA [TGCATGCA_site647]	9.54
TTATTACACAAATGGTGTACTTTTGAGGAACCAAAA [XGTACX_site4279]	9.44
AAATTAAATGTAAGCACACATAAATTATACGCATAT [CACACA_site3335]	9.79
ACATTGAATAAATAATGTACATATATAATATATATT [XGTACX_site95]	9.73
TTGCAGTATTTCGGAACACACAAACATAAATATGTA [CACACA_site5307]	9.67
AACATCTTATCATCATGTACGAAGCAGTTTTATAAG [XGTACX_site2490]	9.54
TATAATAAATATACTGGTACACAAATATATATATTT [XGTACX_site7741]	9.77
TGTAATTTTTTACGTTGTACATATATTAACAATATA [XGTACX_site3991]	9.54
ATATTATATTTACATAGTACACTATATGTATATATA [XGTACX_site2101]	9.79
TATGCATATACACAAGCACACATATATATATATATA [CACACA_site8266]	9.97
AAAAAAATAATATAATATTAAATCTTAGTTAATAAA [GTGCAC_negctrl_site658]	9.49

Sequence	gcPBM binding intensity (ln)
AAAAAAAAAAAAAAAAAAACTAATATAATAAAAATA [TGCATGCA_negctrl_site150]	9.31
TTTTTTTTTTTTTACACACCCAAATCACATACATAT [CACACA_site6089]	9.79
TTTTTTTTTTTTTTTTCTTTTTTTTTTTTAAATAAG [XGTACX_negctrl_site418]	8.82
ATGTCAGGGAAAAAAACACACAAGAGTATGATATGT [CACACA_site2180]	9.8
ATTTTTATATTTAATACACACATAAAATCATACCAT [CACACA_site23]	9.73
TTACATATTTTCATTTGTACATATTCATTTTTTTTC [XGTACX_site6988]	9.74
AAATAACCCACGTGCATGCACTTCAATAACTGAACT	9.84
TAAAAAAGAAAAAGAGCACACAAAAATATTTAACCT [CACACA_site8885]	10.1
TATATATTTATATATTGTACACTCTTATGTAGTGTA [XGTACX_site210]	9.56
TTTATCATGAACAGAAGTACATTTATATCAATGTCT [XGTACX_site6470]	9.52
ATATATATATAATGTTGTACGTTTTATTCTCCCATT [XGTACX_site8071]	9.72
ATATATATATATTTTACACACAATGGAGAAAAAAAT [CACACA_site644]	10
TGGTATATACGACACACACACATATGTATAAATATA [CACACA_site6561]	10.9
TATTTTTAAAAGTTAACAGAAAAAATATAAATAAAT [GTGCAC_negctrl_site295]	9.42
TTTTCCCTTTTTTCCGCACACAATAAAATAAATAAA [CACACA_site2807]	9.75
TGTAATAAAATAATTAGTACACATATATGTATATTT [XGTACX_site5896]	9.75
TACCATAATCAATGCACACATAACAAAATATTATTA [CACACA_site2722]	9.78
TGTTGTTACCTATATACACACATATAAATATTATAG [CACACA_site7180]	9.79
AAAAAAAAAAAAAAAACACACAAGGATCAGATAGAT [CACACA_site7743]	9.83
TTTTTCAGAAAAGAAACACACATATAAATATTTATA [CACACA_site7170]	9.51
AGGGCATATATATATGCACACATACATATATACATG [CACACA_site9282]	9.94
AATATTATGATATTATGTACATATTAAAAGCACCAC [XGTACX_site6236]	10.2

Sequence	gcPBM binding intensity (ln)
TTTACACTTTTTTTTGTACACACTAAAAAGATTAAC [CACACA_site3933]	9.69
TATTTCACAAACCTTACATGCGGTTTATTTATATAT [TGCATGCA_site123]	9.99
TTTATTAAATATATATGTACATATCAAAATGTATAA [XGTACX_site3181]	9.58
GTTAAACATCTTCTGTGATATGTTAGAATATTATTT [CACACA_negctrl_site687]	9.57
TTTTTTTTCTATTGAGCACACATATCACGATTAGTA [CACACA_site7992]	9.75
TTTTTGAATGTTTGCACACAAATCTCATAATTTTAG [CACACA_site357]	9.69
TAGTTACATAAAATATGTACGTATAATTTTTTTATT [XGTACX_site3847]	9.56
ATAATTTATATCATTACACACATTTTTTATATTTTT [CACACA_site3450]	10
TATTTTCTCTTAAAAAGTACTCATATATACATTTAT [XGTACX_site7748]	9.64
TTTAGTTCATACTATGCACACTACGTATATTTTTAA [CACACA_site5484]	9.8
ATAACATACATAACAACACACAATATTTATAGGTAT [CACACA_site6243]	10.6
CGTTATATATTTTATAGTACTTTTTGTAAATTTTTT [XGTACX_site7682]	9.59
ATTAATAAGAAGAAAAGTACAAAACAAAAAGATATA [XGTACX_site7473]	9.72
TAACCAAAAAAAAATATTTAAAATAAATATATATAT [CACACA_negctrl_site1516]	9.54
ATTTAACCAAATAATATATTTAAAAAATAGTCACAT [CACACA_negctrl_site274]	9.58
TTAATTTATGTTAATGGTACGTAAATGCATTTATTT [XGTACX_site3002]	9.69
TTTTATAATTTGAGAACATGCAACATAAATATAAAG [TGCATGCA_site965]	9.52
TATAATATATGAAAAAGTACAAATATTTCGATGGTC [XGTACX_site129]	9.76
TGTTCTAATATTTGTTGTACGTTTACGTTTCTCTCT [XGTACX_site18]	9.78
AACATTTTAAAATAATGTACTTGAAAAAAAAACTAC [XGTACX_site8894]	9.51
CATATAAATAAATATACATGCATACATACATATATA [TGCATGCA_site713]	9.68
TATTTAAGAGTATGAACACACATCATACCCATATAA [CACACA_site5911]	9.84
